Data reported in article PMC11995724, “Antibiotic target discovery by integrated phenotypic and activity-based profiling of electrophilic fragments” (Cell chemical biology, 2025).
Hit rate of the full screen: of about 3,200 compounds, about 110 (3.4%) showed an effect of 50% or more. Some of the results follow.

Tested on: T1, V. cholerae SAD30
T1 construct: SAD30
Set-up: species or system S. aureus MSSA476 (TSB) or V. cholerae SAD30 (LB); 384-well bacterial growth screen at 25 uM, OD600 relative to DMSO control
Conditions: relative growth, OD600, LB; 25 µM; inhibitor

SMILES | % of control remaining [%]
C=CC(=O)Nc1nc(C)c(CC(C)C)s1 [1-J12, N-[4-methyl-5-(2-methylpropyl)-1,3-thiazol-2-yl]prop-2-enamide] | 105.741
CC(C)c1ccc(C(C)NC(=O)CCl)cc1 (centres unmarked) [4-I05, 2-chloro-N-{1-[4-(propan-2-yl)phenyl]ethyl}acetamide] | 99.2021
CC(Cl)C(=O)N1CCN(CC(F)(F)F)CC1C(C)C (centres unmarked) [7-C22, 2-chloro-1-[2-(propan-2-yl)-4-(2,2,2-trifluoroethyl)piperazin-1-yl]propan-1-one] | 85.247
CC(Cl)C(=O)NC1CCN(CC(=O)Nc2ccccc2)CC1 (centres unmarked) [7-E13, 2-chloro-N-{1-[(phenylcarbamoyl)methyl]piperidin-4-yl}propanamide] | 74.938
CN(C)S(=O)(=O)c1cc(NC(=O)CCl)ccc1Cl [5-E13, 2-chloro-N-[4-chloro-3-(dimethylsulfamoyl)phenyl]acetamide] | 91.9618
C=CC(=O)N(C)CC(=O)N1CCn2cc(C(F)(F)F)nc2C1 [3-A04, N-methyl-N-{2-oxo-2-[2-(trifluoromethyl)-5H,6H,7H,8H-imidazo[1,2-a]pyrazin-7-yl]ethyl}prop-2-enamide] | 103.382
NC(=O)c1coc(C(=O)CCl)c1 [10-C05, 5-(2-chloroacetyl)furan-3-carboxamide] | 96.1621
COCC(C)NC(=O)C(C#N)=Cc1cc2cc(F)ccc2o1 (centres unmarked) [9-F04, 2-cyano-3-(5-fluoro-1-benzofuran-2-yl)-N-(1-methoxypropan-2-yl)prop-2-enamide] | 89.123
N#CC(=Cc1ccccc1OC(F)F)C(=O)Nc1ccccc1Cl [9-M21, N-(2-chlorophenyl)-2-cyano-3-[2-(difluoromethoxy)phenyl]prop-2-enamide] | 89.5309
CS(=O)(=O)N1CCCc2cc(C(=O)CCl)ccc21 [10-H19, 2-chloro-1-(1-methanesulfonyl-1,2,3,4-tetrahydroquinolin-6-yl)ethan-1-one] | 22.9106
CN(Cc1ccc(N(C)C)cc1)C(=O)CCl.Cl [5-F06, 2-chloro-N-{[4-(dimethylamino)phenyl]methyl}-N-methylacetamide hydrochloride] | 92.298
Cl.O=C(CCl)Nc1ccccn1 [5-B14, 2-chloro-N-(pyridin-2-yl)acetamide hydrochloride] | 98.0141
O=C(CCl)Nc1sc2c(c1C(=O)c1ccccc1)CCCC2 [4-A06, N-(3-benzoyl-4,5,6,7-tetrahydro-1-benzothiophen-2-yl)-2-chloroacetamide] | 90.5758
COc1ccccc1[C@H]1C[C@H](NC(=O)CCl)C1 [7-L18, 2-chloro-N-[(1r,3r)-3-(2-methoxyphenyl)cyclobutyl]acetamide] | 80.7533
CC(Cl)C(=O)NC1CCCN(c2ncccn2)C1 (centres unmarked) [7-C21, 2-chloro-N-[1-(pyrimidin-2-yl)piperidin-3-yl]propanamide] | 83.3967
C=CC(=O)Nc1cccc(C(F)(F)CF)c1 [2-O12, N-[3-(1,1,2-trifluoroethyl)phenyl]prop-2-enamide] | 84.6377
CCc1ccc(CC)c(C(=O)CCl)c1 [10-H14, 2-chloro-1-(2,5-diethylphenyl)ethan-1-one] | 95.8504
CC(C)N(Cc1ccccc1)C(=O)CCl [5-J20, N-benzyl-2-chloro-N-(propan-2-yl)acetamide] | 99.6953
Cc1ccc(C)c(NC(=O)C(C#N)=Cc2ccc3c(c2)OCCO3)c1 [8-L11, 2-cyano-3-(2,3-dihydro-1,4-benzodioxin-6-yl)-N-(2,5-dimethylphenyl)prop-2-enamide] | 73.6234
C=CC(=O)NC[C@@H]1CCCN1c1ccccc1 [3-E03, N-{[(2S)-1-phenylpyrrolidin-2-yl]methyl}prop-2-enamide] | 105.852
C=CC(=O)N1CCCC(c2nn(C)cc2C(N)=O)C1 (centres unmarked) [1-D07, 1-methyl-3-[1-(prop-2-enoyl)piperidin-3-yl]-1H-pyrazole-4-carboxamide] | 92.9746
CC1CCCCC1NC(=O)C(C#N)=Cc1cccc(O)c1 (centres unmarked) [8-E07, 2-cyano-3-(3-hydroxyphenyl)-N-(2-methylcyclohexyl)prop-2-enamide] | 76.3426
NS(=O)(=O)c1ccc(CNC(=O)CCl)cc1 [4-P12, 2-chloro-N-[(4-sulfamoylphenyl)methyl]acetamide] | 116.972
N#CC(=Cc1ccc(-c2cccc([N+](=O)[O-])c2)o1)C(=O)N1CCOCC1 [8-C07, 2-(morpholine-4-carbonyl)-3-[5-(3-nitrophenyl)furan-2-yl]prop-2-enenitrile] | 81.3732
C=CC(=O)NCC1(c2nc(-c3ccccc3)cs2)CCOCC1 [2-A11, N-{[4-(4-phenyl-1,3-thiazol-2-yl)oxan-4-yl]methyl}prop-2-enamide] | 89.7327
Cc1cc(C=C(C#N)C(=O)Nc2nccs2)ccc1-n1cncn1 [9-J14, 2-cyano-3-[3-methyl-4-(1H-1,2,4-triazol-1-yl)phenyl]-N-(1,3-thiazol-2-yl)prop-2-enamide] | 94.4256
CC(Cl)C(=O)NCc1nc(-c2cccc(C#N)c2)c[nH]1 (centres unmarked) [6-F09, 2-chloro-N-{[4-(3-cyanophenyl)-1H-imidazol-2-yl]methyl}propanamide] | 91.9139
Cn1cc(NC(=O)CCl)c(C(=O)NC2CCC2)n1 [5-A22, 4-(2-chloroacetamido)-N-cyclobutyl-1-methyl-1H-pyrazole-3-carboxamide] | 108.101
Cc1ccc(NC(=O)CCl)cc1S(=O)(=O)N(C)C [4-A09, 2-chloro-N-[3-(dimethylsulfamoyl)-4-methylphenyl]acetamide] | 104.55
